Self-cleavage data for 84 variants are collected here from the RNAGym collection of RNA variant scans (doi:10.7554/elife.90254).

B1: OR4K15 (parent)
chain: GUUAACGGUCAUAGGCCAUGGAAACUAGGAGCACCAUUUCGCUGCCAGUGAAGAAAUGAACAAAGAAAAUCUGGGCCAGGCAGGCAUCAAAAGAAAUAGUCUUGCGCUCAACCAGAAAGUCUGUAAUCAUUUUAAGGGUA

The source gives no read counts; variants with many changes may rest on few reads.

This data set covers variants of B1. The data set can be described thus: self-cleavage, relative activity (ratio to wild type); higher = more cleavage; in vitro, sequencing; the parent is a self-cleaving ribozyme.
A24G A52G A66G U70C U124C: the self-cleavage worked out at 0.5.
To A24G A51U G119A belongs 1.71; to A23U A63G U108C, 0.02.
With A23G U39C A69G U102C the figure was 1.28; with A23G A64U U122C, 0.57; with A23G A52G U72C A78G U102A, 0.11.
With A23G G48U A82U A91G the figure was 0.05; with A23G A62G A64G C81A, 0.33; with A24C A54U U87A A111G, 0.01.
For A23U A62G A86G, the self-cleavage was found to be 1.26.
With A23U C34G A54G U57C A111G A126G the figure was 0; with A23G A52G A110U, 1.06.
With A23G A33G A78G C112U the figure was 0.03.
With A23G C34U A89G A116G U127C, the self-cleavage amounted to 0.05.
To A23G A68G A78C U132C U139A belongs 0.29; to A23G A30U A82C A89G, 0.07; to A23G U130C U132C, 0.97.
Take A23G U103C A118G: the self-cleavage was 0.38.
A23G A67C U87C: the self-cleavage was determined as 0.9.
With A23G U37C A55G the figure was 1.66; with A23G A60G U87C U103C, 0.47; with A23G A54G A89G A94U G104A U130C, 0.01.
With A23G A33U U57C U122C U139C the figure was 0.44; with A23G U38C C45U U87C, 0.7.
To A23G A30G U49C A52G U57C U70C belongs 0.37.
In the case of A23G A27G A56G A63U U72C C85U U120C, the self-cleavage is 0.23.
A24G A52G A56G A78G U108C: the self-cleavage is 0.06.
On to A23G U102C U103G A111G U131C, for which the self-cleavage was found to be 0.
To A24G A51G U97A belongs 1.73.
With A23G A86G U120C U133C the figure was 1.84.
With A23G A64G A91G A114G the figure was 0.68; with A23G A55G A82G U122C U127C U132C, 0.17; with A24C A56G A92U U100C, 1.52.
As for A23G A27U A59G U122C, the self-cleavage amounted to 1.83.
For the variant A23G U130C A135U A140G, the self-cleavage came to 1.24.
With A23U A27G A47C U97C, the self-cleavage is 0.97.
With A23G U100C A118G the figure was 1.6.
Consider A23G A47U A66U U108C U139C, for which the self-cleavage was found to be 0.02.
To A23G U57C U120C belongs 0.1.
With A23G A110G U122C U127C, the self-cleavage was 0.01.
To A23U A55G A92G belongs 0.58; to A23G A89G A111G U120C U124C, 0.01; to A23G U49C A62G A69G A86G, 0.55.
To A23U A27G A55G A66G belongs 0.98; to A23G A60G A62U A90G U103C U120G U122C U132C, 0.
To A23G U43C A69G G123U A126G belongs 1.27.
A23G A62G A68G A114G U127A: the self-cleavage is 0.22.
As to A23G U97C A111U A125G U132C, the self-cleavage amounted to 0.
For A23G U70C G106A, the self-cleavage is 0.08.
With A23U A62C U103C U139A, the self-cleavage turned out to be 0.58.
For A23G A82G A118G, the self-cleavage was determined as 0.32.
With A23G A66G A89U U108A the figure was 0.08.
With A24C A33G A67G U122A the figure was 0.38; with A23U G84U A114U, 0.03.
To A23G U49C A51G U57C U70C belongs 0.7; to A23G A68G U97C, 1.67.
As for A23G U26C U37C C81U, the self-cleavage worked out at 0.5.
As for A23G A33U A114C, the self-cleavage was 0.07.
A23G A51G A64G A96G A135U: the self-cleavage amounted to 0.89.
To A23G U37C A129G belongs 1.07; to A23G U43C U102C U131C, 2.01.
Regarding A23U A27G U131C G137A, the self-cleavage was 0.78.
On to A23G A64G U70C, for which the self-cleavage was 0.98.
With A23G A94G A129G the figure was 0.63.
With A23G A59U U100A A116G, the self-cleavage turned out to be 0.08.
To A23G C25G A51G A82G A92G belongs 0.36.
Turning to A23G A66G G80U U100C U124C, the self-cleavage is 0.11.
To A24G A27G A66G belongs 0.24; to A24G A47U A91U, 1.08.
With A23G A33G U97C U122A, the self-cleavage came to 0.12.
As for A24C U37C U87C, the self-cleavage was 0.65.
A24G A52G A54G G115U: the self-cleavage is 0.27.
In the case of A23G A62G A92G, the self-cleavage came out at 0.54.
To A23G A30U A90G belongs 1.37.
In the case of A23G U39C A52G, the self-cleavage was determined as 2.67.
Turning to A24C A90G G104A, the self-cleavage was determined as 0.01.
In the case of A23G G48U A63G A86U, the self-cleavage stood at 1.4.
With A23G A59G U130C, the self-cleavage was found to be 1.33.
With A23G U57A U97C U103C U132C the figure was 0.28; with A24C A55G A69G A89G A96G U130C, 0.55; with A24C U26C A56G A60G A78G A82G, 0.32.
As for A24C A67G U132C U139C, the self-cleavage amounted to 1.18.
To A23G A78G U122C belongs 0.07; to A24C A52G A78G, 0.31.
